# Among all 310,000 compounds or so, about 2,200 (0.71%) showed an effect of 50% or more. Effects have a minus sign here. The list shows a part of the results.
# Target: human ether-à-go-go-related gene (hERG) potassium channel (human, UniProt Q12809)
# Test: primary screen, population patch clamp on CHO cells stably expressing hERG
# human ether-à-go-go-related gene (hERG) potassium channel, sequence (Q12809 whole entry, looked up): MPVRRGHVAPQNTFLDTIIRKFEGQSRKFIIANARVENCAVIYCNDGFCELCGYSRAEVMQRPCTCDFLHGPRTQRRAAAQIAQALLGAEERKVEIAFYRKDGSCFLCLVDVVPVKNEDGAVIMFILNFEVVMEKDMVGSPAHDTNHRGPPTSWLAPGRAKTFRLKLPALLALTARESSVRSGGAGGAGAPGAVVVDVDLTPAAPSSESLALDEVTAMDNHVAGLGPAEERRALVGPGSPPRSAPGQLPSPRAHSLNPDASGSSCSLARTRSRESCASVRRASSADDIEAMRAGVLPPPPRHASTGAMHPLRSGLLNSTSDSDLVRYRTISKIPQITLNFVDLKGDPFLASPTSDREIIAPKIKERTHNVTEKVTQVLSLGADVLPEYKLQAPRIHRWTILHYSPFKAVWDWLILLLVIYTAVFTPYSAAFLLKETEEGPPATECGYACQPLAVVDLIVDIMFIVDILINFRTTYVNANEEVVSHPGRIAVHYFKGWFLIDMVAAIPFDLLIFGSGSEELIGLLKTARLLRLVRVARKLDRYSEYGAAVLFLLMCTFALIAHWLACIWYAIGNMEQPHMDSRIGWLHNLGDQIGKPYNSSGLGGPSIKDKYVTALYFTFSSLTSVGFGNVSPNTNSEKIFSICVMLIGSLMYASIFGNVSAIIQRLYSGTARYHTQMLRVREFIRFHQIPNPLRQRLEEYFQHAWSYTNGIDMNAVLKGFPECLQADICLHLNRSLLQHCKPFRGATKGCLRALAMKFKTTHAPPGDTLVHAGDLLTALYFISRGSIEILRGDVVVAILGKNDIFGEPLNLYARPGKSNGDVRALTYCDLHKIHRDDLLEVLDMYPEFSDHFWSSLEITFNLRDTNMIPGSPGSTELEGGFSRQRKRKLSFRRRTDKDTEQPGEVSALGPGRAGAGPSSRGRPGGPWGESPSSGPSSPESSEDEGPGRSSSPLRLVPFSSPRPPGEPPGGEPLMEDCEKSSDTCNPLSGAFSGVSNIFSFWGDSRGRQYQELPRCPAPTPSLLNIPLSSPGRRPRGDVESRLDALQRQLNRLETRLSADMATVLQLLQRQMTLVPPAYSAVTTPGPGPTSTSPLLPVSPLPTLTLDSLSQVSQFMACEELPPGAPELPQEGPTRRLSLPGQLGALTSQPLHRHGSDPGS
row,Structure (SMILES),"hERG current change (%, negative = inhibition) at 1uM [%]"
1,O=C(N/N=C/c1ccc(OC(=O)c2ccccc2Cl)cc1)c1ccc(O)cc1,5.47
2,CCOC(=O)C1CCN(C(=O)c2ccc(Cl)c(S(=O)(=O)N3CCOCC3)c2)CC1,-13.7
3,CCOC(=O)C1=C(c2ccccc2)OC(N)=C(C#N)C1c1cccs1 (centres unmarked),13.7
4,COC(=O)C1N2C(=O)[C@@H](NC(=O)COc3ccccc3)[C@H]2SC1(C)C (some centres unmarked),10.6
5,CCn1c(SC(C)C(=O)NCC2CCCO2)nc2scc(-c3ccccc3)c2c1=O (centres unmarked),5.21
6,COC(=O)C1(C(F)(F)F)N=C(N(C)C)OC(N(C)C)=N1,1.67
7,O=C(COC(=O)c1c[nH]c(=O)[nH]c1=O)NCc1ccccc1,-5.77
8,CS(=O)(=O)N(Cc1ccco1)CC(O)Cn1c2ccccc2c2ccccc21 (centres unmarked),15
9,CC1C2CC(CC1(C)C)N(C(=O)Nc1ccc3nccnc3c1)C2 (centres unmarked),10.3
10,COc1ccc(S(=O)(=O)N(C)c2ccc(OC(=O)C(C)Oc3ccc(F)cc3)cc2)cc1 (centres unmarked),2.48
11,CCC(C)NC(=O)[C@@H]1CCCN1C(=O)C1CCN(S(=O)(=O)c2ccc(C)cc2)CC1 (some centres unmarked),17.8
12,COCC(=O)Nc1ccc(C)c(Cl)c1,9.95
13,CCc1cc(=O)oc2c3c(cc(OCC(=O)Nc4cccnc4)c12)OC(C)(C)CC3,11.5
14,COc1cccc(CN2CC(C(=O)NCCCn3cccn3)CCC2=O)c1 (centres unmarked),7.66
15,O=C(CSc1nc2cc(Cl)ccc2o1)N1CCOCC1,-0.134
16,CCc1ccccc1NC(=O)c1ccc(Cn2cc([N+](=O)[O-])cn2)cc1,-3.78
17,CCOC(=O)N1C2=NC(C(=O)OC)=C(C(=O)OC)[C@@H]3N(C)c4ccccc4[C@]23C[C@H]1C(=O)OC,8.18
18,CC1CCCCN1C(=O)COC(=O)C1CCN(S(=O)(=O)c2ccc3c(c2)OCCO3)CC1 (centres unmarked),8.87
19,CN(CC(=O)N1CCCCCC1)S(=O)(=O)c1cccc2cccnc12,5.16
20,O=C(NCc1ccco1)c1cccc(NS(=O)(=O)c2cccc(F)c2)c1,-0.879
21,COc1ccc(C2CC3(O)NC(=O)C(C#N)(C3C)C2(C#N)C#N)cc1 (centres unmarked),7.33
22,COc1cc(OC)cc(C(=O)NCC(=O)OCC(=O)c2cc(OC)ccc2OC)c1,6.59
23,CC1CCc2c(sc(N)c2C(=O)OC(C)C)C1 (centres unmarked),-6.81

# Reference: paper PMC4336329 (PLoS ONE, 2015)
